# The inconclusive results got no clear call from the source; some entries with a clear call stand among them for comparison. For some of these results: Potencies of inconclusive entries are doubtful fits and often do not repeat. Active and inactive are the calls of the source. Unless noted, the call rests on the fitted dose curve; in most records, active means well fitted curve in the direction sought with a large enough effect; inconclusive means small, poorly fitted or top-dose-only effect, or another doubt; inactive means no such curve, though single readings can be large; an effect the other way counts as inactive or inconclusive.
# Experiments:
# [1] = target: Rap guanine nucleotide exchange factor 3 (Homo sapiens) (UniProt O95398); test: Confirmatory qHTS for antagonist of cAMP-regulated guanine nucleotide exchange factor 3 (EPAC1) (AID 1645880); details: EPAC1 Rap1B-BODIPY-GDP exchange, fluorescence; activity, negative = inhibition: at 115 µM (top of the series); further: nearly all actives have a fitted effect of over 55% in size; further: potency means the concentration at half of the fitted maximal effect;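 on activity, negative = inhibition: plate controls were DMSO only for no effect and full effect of the ATA control for full effect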
# UniProt O95398, sequence (O95398 whole entry, looked up): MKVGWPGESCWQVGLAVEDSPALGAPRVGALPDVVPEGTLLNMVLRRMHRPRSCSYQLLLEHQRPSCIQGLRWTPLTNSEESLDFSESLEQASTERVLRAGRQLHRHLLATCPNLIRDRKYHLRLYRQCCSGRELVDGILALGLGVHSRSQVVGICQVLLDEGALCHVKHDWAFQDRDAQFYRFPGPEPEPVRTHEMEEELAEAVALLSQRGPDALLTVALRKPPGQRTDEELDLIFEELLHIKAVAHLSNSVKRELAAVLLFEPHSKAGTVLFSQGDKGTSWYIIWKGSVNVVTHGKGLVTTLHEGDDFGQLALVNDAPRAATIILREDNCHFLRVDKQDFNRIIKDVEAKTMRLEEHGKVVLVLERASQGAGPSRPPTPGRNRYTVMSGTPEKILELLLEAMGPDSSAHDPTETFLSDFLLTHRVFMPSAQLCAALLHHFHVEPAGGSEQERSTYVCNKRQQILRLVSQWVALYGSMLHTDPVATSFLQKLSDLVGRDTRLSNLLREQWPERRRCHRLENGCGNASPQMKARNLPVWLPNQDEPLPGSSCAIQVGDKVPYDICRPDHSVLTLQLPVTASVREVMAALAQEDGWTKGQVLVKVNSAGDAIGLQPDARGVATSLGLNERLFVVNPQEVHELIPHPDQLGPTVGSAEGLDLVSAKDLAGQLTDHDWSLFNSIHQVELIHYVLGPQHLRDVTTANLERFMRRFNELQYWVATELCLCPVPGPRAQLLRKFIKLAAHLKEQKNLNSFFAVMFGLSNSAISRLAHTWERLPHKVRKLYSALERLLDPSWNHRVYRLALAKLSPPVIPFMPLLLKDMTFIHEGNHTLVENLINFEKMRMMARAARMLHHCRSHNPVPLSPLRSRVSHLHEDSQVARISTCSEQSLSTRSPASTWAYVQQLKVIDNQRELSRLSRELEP
# Summary of the method: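 Released BODIPY-GDP fluoresces less than Rap1-bound BODIPY-GDP; the signal is followed at 480/540 nm at 5-min intervals over 30 min, after 5 min at room temperature. Reactions contain 100 nM EPAC1, 250 nM RAP1B-BODIPY-GDP and 50 uM GDP; results are normalized to ATA and DMSO.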
# [2] = target: Rap guanine nucleotide exchange factor 3 (Homo sapiens) (UniProt O95398); test: Confirmatory qHTS for agonist of cAMP-regulated guanine nucleotide exchange factor 3 (EPAC1) (AID 1645881); details: EPAC1 Rap1B BODIPY-GDP exchange fluorescence; activation: at 154 µM (top of the series), 100% = cAMP control response; further: nearly all actives have a fitted effect of over 75% in size; further: potency means the concentration at half of the fitted maximal effect;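 on activation: EPAC1 catalysed release of BODIPY-GDP from Rap1B seen as fluorescence loss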
# [3] = target: Rap guanine nucleotide exchange factor 3 (Homo sapiens) (UniProt O95398); test: Counterscreen qHTS for agonist of cAMP-regulated guanine nucleotide exchange factor 3 (EPAC1) (AID 1645889); details: EPAC1 Rap1B-BODIPY-GDP exchange, fluorescence; activation: at 154 µM (top of the series) unless noted; further: nearly all actives have a fitted effect of over 40% in size; further: potency means the concentration at half of the fitted maximal effect; on activation: % of control where 0% means no effect
# Summary of the method: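 Rap1B–BODIPY-GDP (250 nM) with 50 uM GDP; compounds pin-transferred to 9.74 nM–152 uM final (activator) or from 7.32 nM upwards (inhibitor). Fluorescence Ex/Em 480/540 nm read at 5 and 30 min, then after adding cAMP or buffer, at room temperature.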
# [4] = NFAT Signaling Pathway (AID 444; active means well fitted curve in either direction with a large enough effect, not every such curve was filed as active; inconclusive means small, poorly fitted or top-dose-only effect, or another doubt;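 further: carbachol stimulus at about its EC50 of 1 µM final; on the % scale 0 is the no-effect control and ±100 the full control effect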); details: Jurkat NFAT-bla M1, carbachol, beta-lactamase ratio, 5 h; at 7.69 µM (top of the series) unless noted
# Summary of the method: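 Jurkat cells with NFAT-driven β-lactamase reporter and co-expressed M1 receptor, stimulated with carbachol (final 1 uM, ~EC50), compound titration, 5 h at 37 °C. CCF4 loaded 1 h at RT; 460/530 nm ratio gave %activity and AC50.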
# [5] = qHTS Assay for Identification of Small Molecule Agonists for Hypoxia Response Element Signaling Pathway (AID 914; active means well fitted activation curve with a large enough effect in the signal ratio, with a control signal flat, not every such curve was filed as active; inconclusive means small, poorly fitted or top-dose-only effect, or effect the other way, or a change in a side signal; the % refers to the signal ratio; further: potency means the concentration at half of the fitted maximal effect); details: ME-180 (cervical carcinoma) HRE-bla reporter, beta-lactamase ratio, CoCl2, 17 h; activation: stronger effect = higher value
# Summary of the method: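 Reporter activity (beta-lactamase, CCF4 460nm/530nm ratio) in HRE-bla ME-180 cells is recorded after 17 h compound exposure with EC50 CoCl2 at 37 degrees Celsius. AC50 values come from titration data.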
# [6] = target: Tumor susceptibility gene 101 protein (Homo sapiens) (UniProt Q99816); test: qHTS Assay for Iinhibitors of HIV-1 Budding by Blocking the Interaction of PTAP/TSG101: Hit Validation (AID 651600); details: PTAP peptide/TSG101 UEV interaction, biochemical assay; series mostly up to 57.5 µM; further: potency means the concentration at half of the fitted maximal effect; nearly all actives have a fitted effect of over 70% in size
# UniProt Q99816, sequence (Q99816 whole entry, looked up): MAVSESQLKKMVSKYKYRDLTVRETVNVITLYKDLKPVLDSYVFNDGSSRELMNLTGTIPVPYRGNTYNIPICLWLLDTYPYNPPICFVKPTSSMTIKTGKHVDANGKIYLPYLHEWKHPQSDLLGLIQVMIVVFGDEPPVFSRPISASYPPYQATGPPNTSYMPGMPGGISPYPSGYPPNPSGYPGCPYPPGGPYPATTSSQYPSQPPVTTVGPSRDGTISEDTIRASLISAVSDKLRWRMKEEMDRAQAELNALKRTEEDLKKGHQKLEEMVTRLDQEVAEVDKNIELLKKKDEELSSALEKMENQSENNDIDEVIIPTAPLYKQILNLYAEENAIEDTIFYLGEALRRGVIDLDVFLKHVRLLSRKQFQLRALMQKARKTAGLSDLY
# Summary of the method: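 Measuring PTAP–Tsg101 interaction by FP: protein at 10 uM and fluorescent peptide at 50 nM (final), buffer 10 mM HEPES pH 7.5 with 0.15 M NaCl, 3 mM EDTA, 0.1 mM TCEP, 0.01% Tween 20; 20 min incubation, r.t.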
# [7] = target: Lethal(3)malignant brain tumor-like protein 1 (Homo sapiens) (UniProt Q9Y468); test: qHTS Assay for the Inhibitors of L3MBTL1: Hit Validation (AID 540279); details: L3MBTL1 methyl-lysine binding inhibition, biochemical qHTS; further: potency means the concentration at half of the fitted maximal effect; nearly all actives have a fitted effect of over 70% in size
# UniProt Q9Y468, sequence (Q9Y468 whole entry, looked up): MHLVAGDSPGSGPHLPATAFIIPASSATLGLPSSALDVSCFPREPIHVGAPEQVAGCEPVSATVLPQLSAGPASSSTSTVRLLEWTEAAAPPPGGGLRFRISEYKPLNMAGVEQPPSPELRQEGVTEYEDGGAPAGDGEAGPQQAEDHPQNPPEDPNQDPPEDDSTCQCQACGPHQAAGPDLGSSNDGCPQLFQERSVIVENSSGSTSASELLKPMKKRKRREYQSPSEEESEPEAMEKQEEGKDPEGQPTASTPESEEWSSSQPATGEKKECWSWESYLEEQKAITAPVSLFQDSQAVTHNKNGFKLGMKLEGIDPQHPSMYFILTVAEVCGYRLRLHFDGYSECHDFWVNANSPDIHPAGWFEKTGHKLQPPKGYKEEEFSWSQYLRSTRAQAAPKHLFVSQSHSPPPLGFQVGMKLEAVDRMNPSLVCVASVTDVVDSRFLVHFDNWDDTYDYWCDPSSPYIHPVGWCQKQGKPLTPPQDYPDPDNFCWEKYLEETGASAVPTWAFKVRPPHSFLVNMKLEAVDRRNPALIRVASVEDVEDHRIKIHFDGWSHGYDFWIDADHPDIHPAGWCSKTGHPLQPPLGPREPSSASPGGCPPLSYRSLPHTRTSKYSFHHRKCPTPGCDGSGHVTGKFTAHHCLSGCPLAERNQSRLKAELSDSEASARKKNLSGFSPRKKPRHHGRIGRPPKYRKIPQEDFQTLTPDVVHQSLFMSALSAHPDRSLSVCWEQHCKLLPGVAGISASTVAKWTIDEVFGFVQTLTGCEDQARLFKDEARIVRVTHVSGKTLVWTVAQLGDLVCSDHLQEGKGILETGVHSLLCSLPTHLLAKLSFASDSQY
# Summary of the method: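 L3MBTL1 (50 nM final) preformed 30 min with biotinylated H3(1-15)K9me1 peptide (75 nM), then compound 30 min at room temperature. Streptavidin donor and nickel chelate acceptor AlphaScreen beads (10 ug/mL each final) added for 30 min before read.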
# [8] = target: Tyrosyl-DNA phosphodiesterase 1 (Homo sapiens) (UniProt Q9NUW8); test: Confirmation Assay for Inhibitors of Tyrosyl-DNA Phosphodiesterase (TDP1) (AID 489007); details: recombinant human TDP1 enzymatic activity, dose-response; further: potency means the concentration at half of the fitted maximal effect; nearly all actives have a fitted effect of over 40% in size
# UniProt Q9NUW8, sequence (Q9NUW8 whole entry, looked up): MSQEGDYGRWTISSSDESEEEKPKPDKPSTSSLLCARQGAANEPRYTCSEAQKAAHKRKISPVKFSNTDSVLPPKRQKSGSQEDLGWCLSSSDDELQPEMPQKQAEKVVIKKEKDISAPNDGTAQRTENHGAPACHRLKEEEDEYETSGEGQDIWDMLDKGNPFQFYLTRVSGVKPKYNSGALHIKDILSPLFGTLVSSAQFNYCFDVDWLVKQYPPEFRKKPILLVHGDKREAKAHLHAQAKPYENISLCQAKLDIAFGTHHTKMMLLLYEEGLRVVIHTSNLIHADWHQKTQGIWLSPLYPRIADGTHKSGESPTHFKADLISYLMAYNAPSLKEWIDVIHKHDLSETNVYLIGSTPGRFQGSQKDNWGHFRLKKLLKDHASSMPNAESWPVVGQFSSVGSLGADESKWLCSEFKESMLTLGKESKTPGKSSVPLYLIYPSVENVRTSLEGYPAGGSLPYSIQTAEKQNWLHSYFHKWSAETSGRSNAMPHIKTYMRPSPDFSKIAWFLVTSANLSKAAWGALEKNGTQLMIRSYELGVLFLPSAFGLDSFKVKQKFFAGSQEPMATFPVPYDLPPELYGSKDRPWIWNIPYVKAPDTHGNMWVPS
# Summary of the method: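 AlphaScreen assay of tyrosine-FITC cleavage from a biotinylated DNA substrate (15 nM) by E. coli-expressed human Tdp1 (1 nM). Sequence: compound preincubation 15 min, reaction 5 min, bead detection 10 min, all at room temperature. No-enzyme wells give maximum signal.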
# [9] = target: Fructose-bisphosphate aldolase (Giardia intestinalis (strain ATCC 50803 / WB clone C6)) (UniProt A8B2U2); test: qHTS Assay for Inhibitors of Fructose-1,6-bisphosphate Aldolase from Giardia Lamblia: Primary screen confirmation (AID 2787); details: purified Giardia aldolase enzyme activity; series mostly up to 57.5 µM; further: potency means the concentration at half of the fitted maximal effect; nearly all actives have a fitted effect of over 45% in size
# UniProt A8B2U2, sequence (A8B2U2 whole entry, looked up): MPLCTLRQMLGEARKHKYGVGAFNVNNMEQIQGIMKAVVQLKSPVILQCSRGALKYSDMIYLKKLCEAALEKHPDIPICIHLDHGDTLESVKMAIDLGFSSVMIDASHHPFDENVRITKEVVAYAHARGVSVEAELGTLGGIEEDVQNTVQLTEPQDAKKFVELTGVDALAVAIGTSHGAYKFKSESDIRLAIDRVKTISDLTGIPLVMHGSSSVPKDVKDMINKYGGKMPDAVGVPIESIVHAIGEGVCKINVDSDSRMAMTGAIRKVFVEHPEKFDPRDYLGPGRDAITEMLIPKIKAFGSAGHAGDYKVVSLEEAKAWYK
# Summary of the method: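 FBPA (40 nM in enzyme reagent, with 30 uM ZnCl2) was preincubated 10 min at RT with compound up to 57.5 uM final. Substrate plus coupled detection system was then added, and fluorescence (525/598 nm) was read after 20 min at RT.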
# [10] = target: Fructose-bisphosphate aldolase A (Oryctolagus cuniculus) (UniProt P00883); test: qHTS Assay for Inhibitors of Fructose-1,6-bisphosphate Aldolase from Giardia Lamblia: Rabbit FBPA Selectivity (AID 2794); details: Rabbit muscle FBPA enzyme inhibition, selectivity counter-screen; series mostly up to 57.5 µM; further: potency means the concentration at half of the fitted maximal effect; nearly all actives have a fitted effect of over 60% in size
# UniProt P00883, sequence (P00883 whole entry, looked up): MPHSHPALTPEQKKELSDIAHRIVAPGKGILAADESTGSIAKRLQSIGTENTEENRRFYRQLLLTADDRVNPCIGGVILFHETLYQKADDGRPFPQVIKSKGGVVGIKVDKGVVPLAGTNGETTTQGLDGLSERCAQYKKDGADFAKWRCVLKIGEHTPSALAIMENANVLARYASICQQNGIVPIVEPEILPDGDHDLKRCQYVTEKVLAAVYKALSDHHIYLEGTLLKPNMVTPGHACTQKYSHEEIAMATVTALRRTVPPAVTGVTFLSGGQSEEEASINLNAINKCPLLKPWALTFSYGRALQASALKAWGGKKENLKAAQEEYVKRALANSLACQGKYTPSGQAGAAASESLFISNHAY
# Summary of the method: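 Each compound, dosed at up to 57.5 uM final, was first mixed with coupling enzyme reagent for 10 min. Aldolase substrate and the AmpLite Red coupling system then ran 20 min at RT before a single fluorescence read.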
# Tags describe the fitted curve by direction and shape or compound fluorescence and quenching.
smiles,measurement,setting,value
CCOC(=O)c1c(NC(=O)c2ccc(S(=O)(=O)N3CCC(C)CC3)cc2)sc2c1CCN(C(C)C)C2,Potency,[1],inactive
same,Potency,[2],active: 89.1 µM
same,Potency,[3],active: 44.7 µM
CCCCCCc1cc2cc(C(=O)NC)c(=N)oc2cc1O,"activity change, negative = inhibition",[4],inconclusive: 48.3% [activator] [at 17.2 µM]
same,Potency,[5],active: 3.98 µM
same,Potency,[6],"inconclusive: 4.61 µM [inhibitor, full curve]"
same,Potency,[1],inactive
same,Potency,[2],active: 89.1 µM
same,activation,[3],inconclusive: 19.9% [activator]
CSc1nc(N)c(C(=O)N(c2ccccc2)c2ccccc2)s1,Potency,[1],"inconclusive: 3.16 µM [inhibitor, full curve, poor fit]"
same,Potency,[2],inactive
same,activation,[3],inactive: 22.8% [at 30.8 µM]
COC(/C(=N/O)c1ccc(Cl)cc1)c1ccccc1 (stereo not given),Potency,[1],"inconclusive: 44.7 µM [inhibitor, partial curve]"
same,Potency,[2],"inconclusive: 35.5 µM [activator, full curve, poor fit]"
same,Potency,[3],"inconclusive: 7.94 µM [activator, partial curve, poor fit]"
COc1ccc(C=NNc2ccc(S(=O)(=O)Nc3ccccc3C(=O)O)cc2[N+](=O)[O-])c(OC)c1,Potency,[1],active: 15.1 µM
same,Potency,[2],inactive
same,Potency,[3],"inconclusive: 0.224 µM [activator, full curve, poor fit]"
COc1ccc(C2Nc3ccccc3-c3cc(C)nn32)c(OC)c1 (stereo not given),Potency,[1],"inconclusive: 95.3 µM [inhibitor, partial curve, poor fit]"
same,Potency,[2],"inconclusive: 89.1 µM [activator, partial curve, poor fit]"
same,Potency,[3],"inconclusive: 28.2 µM [activator, partial curve, poor fit]"
CC(=O)NC(c1ccccc1)c1cc(Cl)c2cccnc2c1O (stereo not given),Potency,[1],inactive
same,Potency,[2],inactive
same,Potency,[3],"inconclusive: 14.1 µM [activator, partial curve]"
Oc1c(Br)cc(Br)cc1CNc1cccc2cccnc12,Potency,[7],"inconclusive: 2.99 µM [inhibitor, full curve, poor fit]"
same,Potency,[1],"inconclusive: 84.9 µM [inhibitor, partial curve]"
same,Potency,[2],inactive
same,Potency,[3],"inconclusive: 0.447 µM [activator, full curve, poor fit]"
O=C(Cn1ccc(=O)[nH]c1=O)c1ccc([N+](=O)[O-])o1,Potency,[1],inactive
same,Potency,[2],"inconclusive: 100 µM [activator, partial curve, poor fit]"
same,activation,[3],inactive: 18.6% [at 30.8 µM]
CNC(=O)COC(=O)c1cc(-c2ccco2)nc2ccccc12,Potency,[1],active: 23.9 µM
same,Potency,[2],inactive
same,Potency,[3],active: 50.1 µM
COc1cc(/C=C2\CCn3c2nc2cc(C(=O)O)ccc2c3=O)ccc1OC(F)F,Potency,[1],"inconclusive: 21.3 µM [inhibitor, partial curve, poor fit]"
same,Potency,[2],"inconclusive: 89.1 µM [activator, partial curve, poor fit]"
same,Potency,[3],inactive
CCCCn1c(N)c(N(CCC(C)C)C(=O)Cc2ccc(S(=O)(=O)N3CCOCC3)s2)c(=O)[nH]c1=O,Potency,[1],inactive
same,Potency,[2],inactive
same,Potency,[3],"inconclusive: 10 µM [activator, full curve, poor fit]"
O=C(/C=C/c1ccco1)Nc1cccc2cccnc12,Potency,[8],"inconclusive: 112 µM [inhibitor, single point]"
same,Potency,[1],"inconclusive: 50.1 µM [inhibitor, partial curve]"
same,Potency,[2],inactive
same,Potency,[3],"inconclusive: 0.141 µM [activator, full curve, poor fit]"
Oc1ccccc1N=Cc1c(O)ccc2ccccc12,Potency,[9],active: 0.326 µM
same,Potency,[10],"inconclusive: 13 µM [inhibitor, partial curve]"
same,Potency,[1],"inconclusive: 2.82 µM [inhibitor, full curve]"
same,Potency,[2],"inconclusive: 100 µM [activator, partial curve, poor fit]"
same,activation,[3],inconclusive: 68.6% [activator] [at 30.8 µM]
CCOC(=O)C1CCN(c2c(C(=O)c3ccc(C)cc3)cnc3ccc(F)cc23)CC1,Potency,[1],"inconclusive: 95.3 µM [inhibitor, single point]"
same,Potency,[2],inactive
same,Potency,[3],"inconclusive: 56.2 µM [activator, partial curve]"
Cc1nc2c3cc(F)ccc3n(Cc3ccccc3F)c2s1,Potency,[1],"inconclusive: 56.2 µM [inhibitor, partial curve, poor fit]"
same,Potency,[2],"inconclusive: 63.1 µM [activator, partial curve, poor fit]"
same,activation,[3],inconclusive: 49.6% [activator] [at 30.8 µM]

# Source: PubChem BioAssay (NCATS)
